Test results: publication PMC12820563
The list shows a part of the results. The list includes weakly bound sequences.

What follows are sequences tested against T1, MBP-FoxP3dN (UniProt Q99JB6) (assay: PD-seq (MBP pull-down with sequencing)). Conditions: 20 mM Tris-HCl pH 7.5, 100 mM NaCl, 1.5 mM MgCl2, 0.4 uM protein, 0.1 uM dsDNA library, 30 min, room temperature, amylose pull-down; high values mean tight binding; double strand, one strand shown.
T1 sequence: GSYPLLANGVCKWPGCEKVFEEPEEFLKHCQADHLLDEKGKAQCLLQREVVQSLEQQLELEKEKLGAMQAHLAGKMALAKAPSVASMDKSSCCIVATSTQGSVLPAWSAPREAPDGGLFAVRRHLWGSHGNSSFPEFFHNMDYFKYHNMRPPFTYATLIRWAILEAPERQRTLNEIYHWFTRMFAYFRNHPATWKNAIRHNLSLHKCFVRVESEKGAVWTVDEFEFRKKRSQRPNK
Sequence “GATGATTGTTCTCCCAGCTGATGAATTCTCTAACTCGAGTAAACAAATTTTCCTAATCTTTCTGTTCAAGCGCCATCTAC” has a binding signal (RPM ratio (pull-down/input)) of 0.211.
In the case of “GATGATTGTTCTCCCAGCTGATGAATTGCTTTCATCGAGTAAACAAATTTTCCTAATCTTTCTGTTCAAGCGCCATCTAC”, the binding signal (RPM ratio (pull-down/input)) is reported as 1.04.
“GATGATTGTTCTCCCAGCTGATGAATTCCGAGGATCGAGTAAACAAATTTTCCTAATCTTTCTGTTCAAGCGCCATCTAC” showed a binding signal (RPM ratio (pull-down/input)) of 0.216.
With “GATGATTGTTCTCCCAGCTGATGAATTCGAATCTTCGAGTAAACAAATTTTCCTAATCTTTCTGTTCAAGCGCCATCTAC” the binding signal (RPM ratio (pull-down/input)) was 0.511.
“GATGATTGTTCTCCCAGCTGATGAATTGGAGAGGTCGAGTAAACAAATTTTCCTAATCTTTCTGTTCAAGCGCCATCTAC” gave a binding signal (RPM ratio (pull-down/input)) of 0.195.
In the case of “GATGATTGTTCTCCCAGCTGATGAATTAAGCGATTCGAGTAAACAAATTTTCCTAATCTTTCTGTTCAAGCGCCATCTAC”, the binding signal (RPM ratio (pull-down/input)) is reported as 1.09.
Sequence “GATGATTGTTCTCCCAGCTGATGAATTGGCTTGTTCGAGTAAACAAATTTTCCTAATCTTTCTGTTCAAGCGCCATCTAC” has a binding signal (RPM ratio (pull-down/input)) of 2.49.
“GATGATTGTTCTCCCAGCTGATGAATTTAAAACCTCGAGTAAACAAATTTTCCTAATCTTTCTGTTCAAGCGCCATCTAC” gave a binding signal (RPM ratio (pull-down/input)) of 0.227.
Work on “GATGATTGTTCTCCCAGCTGATGAATTCGACAACTCGAGTAAACAAATTTTCCTAATCTTTCTGTTCAAGCGCCATCTAC” yielded a binding signal (RPM ratio (pull-down/input)) of 0.474.
“GATGATTGTTCTCCCAGCTGATGAATTAGAATAGTCGAGTAAACAAATTTTCCTAATCTTTCTGTTCAAGCGCCATCTAC” showed a binding signal (RPM ratio (pull-down/input)) of 0.342.
“GATGATTGTTCTCCCAGCTGATGAATTGTATACCTCGAGTAAACAAATTTTCCTAATCTTTCTGTTCAAGCGCCATCTAC” gave a binding signal (RPM ratio (pull-down/input)) of 3.63.
Work on “GATGATTGTTCTCCCAGCTGATGAATTTCAGCTCTCGAGTAAACAAATTTTCCTAATCTTTCTGTTCAAGCGCCATCTAC” yielded a binding signal (RPM ratio (pull-down/input)) of 0.337.
Work on “GATGATTGTTCTCCCAGCTGATGAATTTAAAGAATCGAGTAAACAAATTTTCCTAATCTTTCTGTTCAAGCGCCATCTAC” yielded a binding signal (RPM ratio (pull-down/input)) of 0.177.
With “GATGATTGTTCTCCCAGCTGATGAATTAAACCAGTCGAGTAAACAAATTTTCCTAATCTTTCTGTTCAAGCGCCATCTAC” the binding signal (RPM ratio (pull-down/input)) was 0.361.
Sequence “GATGATTGTTCTCCCAGCTGATGAATTGGCTGCGTCGAGTAAACAAATTTTCCTAATCTTTCTGTTCAAGCGCCATCTAC” has a binding signal (RPM ratio (pull-down/input)) of 0.563.
“GATGATTGTTCTCCCAGCTGATGAATTAGACTTTTCGAGTAAACAAATTTTCCTAATCTTTCTGTTCAAGCGCCATCTAC” showed a binding signal (RPM ratio (pull-down/input)) of 0.478.
“GATGATTGTTCTCCCAGCTGATGAATTGTTATATTCGAGTAAACAAATTTTCCTAATCTTTCTGTTCAAGCGCCATCTAC” was tested, and the binding signal (RPM ratio (pull-down/input)) was 1.27.
“GATGATTGTTCTCCCAGCTGATGAATTAGCGATATCGAGTAAACAAATTTTCCTAATCTTTCTGTTCAAGCGCCATCTAC” was tested, and the binding signal (RPM ratio (pull-down/input)) was 0.612.
“GATGATTGTTCTCCCAGCTGATGAATTTGGGAGTTCGAGTAAACAAATTTTCCTAATCTTTCTGTTCAAGCGCCATCTAC” gave a binding signal (RPM ratio (pull-down/input)) of 0.45.
For “GATGATTGTTCTCCCAGCTGATGAATTGTTAACATCGAGTAAACAAATTTTCCTAATCTTTCTGTTCAAGCGCCATCTAC”, the binding signal (RPM ratio (pull-down/input)) was 1.08.
In the case of “GATGATTGTTCTCCCAGCTGATGAATTGCACGCATCGAGTAAACAAATTTTCCTAATCTTTCTGTTCAAGCGCCATCTAC”, the binding signal (RPM ratio (pull-down/input)) is reported as 1.94.
With “GATGATTGTTCTCCCAGCTGATGAATTAACGGACTCGAGTAAACAAATTTTCCTAATCTTTCTGTTCAAGCGCCATCTAC” the binding signal (RPM ratio (pull-down/input)) was 0.244.
For “GATGATTGTTCTCCCAGCTGATGAATTGTGAAAATCGAGTAAACAAATTTTCCTAATCTTTCTGTTCAAGCGCCATCTAC”, the binding signal (RPM ratio (pull-down/input)) was 0.302.
For “GATGATTGTTCTCCCAGCTGATGAATTCAGTCTATCGAGTAAACAAATTTTCCTAATCTTTCTGTTCAAGCGCCATCTAC”, the binding signal (RPM ratio (pull-down/input)) was 0.735.
For “GATGATTGTTCTCCCAGCTGATGAATTCGGCGCCTCGAGTAAACAAATTTTCCTAATCTTTCTGTTCAAGCGCCATCTAC”, the binding signal (RPM ratio (pull-down/input)) was 1.25.
“GATGATTGTTCTCCCAGCTGATGAATTAAGAGACTCGAGTAAACAAATTTTCCTAATCTTTCTGTTCAAGCGCCATCTAC” showed a binding signal (RPM ratio (pull-down/input)) of 0.461.
“GATGATTGTTCTCCCAGCTGATGAATTCGTAGCTTCGAGTAAACAAATTTTCCTAATCTTTCTGTTCAAGCGCCATCTAC” was tested, and the binding signal (RPM ratio (pull-down/input)) was 0.732.
In the case of “GATGATTGTTCTCCCAGCTGATGAATTGTACGGCTCGAGTAAACAAATTTTCCTAATCTTTCTGTTCAAGCGCCATCTAC”, the binding signal (RPM ratio (pull-down/input)) is reported as 0.298.
With “GATGATTGTTCTCCCAGCTGATGAATTGCGCTTATCGAGTAAACAAATTTTCCTAATCTTTCTGTTCAAGCGCCATCTAC” the binding signal (RPM ratio (pull-down/input)) was 2.48.
Sequence “GATGATTGTTCTCCCAGCTGATGAATTTTGACCTTCGAGTAAACAAATTTTCCTAATCTTTCTGTTCAAGCGCCATCTAC” has a binding signal (RPM ratio (pull-down/input)) of 0.402.
“GATGATTGTTCTCCCAGCTGATGAATTACGTGTATCGAGTAAACAAATTTTCCTAATCTTTCTGTTCAAGCGCCATCTAC” showed a binding signal (RPM ratio (pull-down/input)) of 1.74.
“GATGATTGTTCTCCCAGCTGATGAATTCTGTATTTCGAGTAAACAAATTTTCCTAATCTTTCTGTTCAAGCGCCATCTAC” was tested, and the binding signal (RPM ratio (pull-down/input)) was 4.09.
In the case of “GATGATTGTTCTCCCAGCTGATGAATTTCTACAGTCGAGTAAACAAATTTTCCTAATCTTTCTGTTCAAGCGCCATCTAC”, the binding signal (RPM ratio (pull-down/input)) is reported as 0.213.
Sequence “GATGATTGTTCTCCCAGCTGATGAATTGGGGACCTCGAGTAAACAAATTTTCCTAATCTTTCTGTTCAAGCGCCATCTAC” has a binding signal (RPM ratio (pull-down/input)) of 0.306.
In the case of “GATGATTGTTCTCCCAGCTGATGAATTTGGCCCGTCGAGTAAACAAATTTTCCTAATCTTTCTGTTCAAGCGCCATCTAC”, the binding signal (RPM ratio (pull-down/input)) is reported as 1.29.
For “GATGATTGTTCTCCCAGCTGATGAATTAACGACTTCGAGTAAACAAATTTTCCTAATCTTTCTGTTCAAGCGCCATCTAC”, the binding signal (RPM ratio (pull-down/input)) was 0.485.
In the case of “GATGATTGTTCTCCCAGCTGATGAATTATATACATCGAGTAAACAAATTTTCCTAATCTTTCTGTTCAAGCGCCATCTAC”, the binding signal (RPM ratio (pull-down/input)) is reported as 1.17.
With “GATGATTGTTCTCCCAGCTGATGAATTTCTGGTCTCGAGTAAACAAATTTTCCTAATCTTTCTGTTCAAGCGCCATCTAC” the binding signal (RPM ratio (pull-down/input)) was 0.34.
“GATGATTGTTCTCCCAGCTGATGAATTGCCTGATTCGAGTAAACAAATTTTCCTAATCTTTCTGTTCAAGCGCCATCTAC” gave a binding signal (RPM ratio (pull-down/input)) of 0.568.
In the case of “GATGATTGTTCTCCCAGCTGATGAATTAGACCTGTCGAGTAAACAAATTTTCCTAATCTTTCTGTTCAAGCGCCATCTAC”, the binding signal (RPM ratio (pull-down/input)) is reported as 0.341.
